Laboratory results reported in PubChem BioAssay AID1240 (Sanford-Burnham Center for Chemical Genomics, 2008).
The whole screen tested about 50,000 compounds, of which about 800 (1.6%) showed an effect of 50% or more. This is one part of the list.

Target: Bcl-2-like protein 10 (Homo sapiens) (UniProt Q9HD36)
Assay: TR3 peptide-Bcl-B binding displacers, biochemical primary FP assay, phenotype converters (AID 1240);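 further: 0% = Bcl-B with tracer peptide and DMSO and 100% = tracer peptide lacking Bcl-B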
Settings: GST-Bcl-B / FITC-TR3 peptide fluorescence polarization; stronger effect = higher value; compound at 3.75 mg/L

Sequence of UniProt Q9HD36 (Q9HD36 whole entry, looked up): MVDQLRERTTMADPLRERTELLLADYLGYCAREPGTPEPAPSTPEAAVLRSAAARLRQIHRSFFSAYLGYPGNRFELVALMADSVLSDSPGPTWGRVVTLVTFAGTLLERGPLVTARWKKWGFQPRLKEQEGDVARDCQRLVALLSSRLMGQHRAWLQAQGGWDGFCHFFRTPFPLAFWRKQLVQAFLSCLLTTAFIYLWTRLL

SMILES	displacement [%]
C=CCOc1ccc2c(=O)c(-c3ccccc3OC)coc2c1	8.6
CC1(C)CC(=O)C2=C(C1)Nc1ccccc1N(C(=O)C(F)(F)F)C2c1ccc(-c2ccc(Br)cc2)o1 (stereo not drawn)	-8.5
N#C/C(=C/c1ccc2c(c1)OCO2)C(=O)Nc1cccc(Br)c1	-10.3
S=C(Nc1ccccc1)Nc1ccc(Cc2ccc(NC(=S)Nc3ccccc3)cc2)cc1	10.2
CCOC(=O)c1c(NC(=O)CNCCO)sc(C)c1C	-4.1
CCOC(=O)CCCN1C(=O)/C(=C/c2ccccc2)SC1=S	17.7
COC(=O)c1cc(C(=O)Nc2ccccc2C(N)=O)cc([N+](=O)[O-])c1	2.8
COc1ccccc1N1CCN(CC(O)COc2ccc(C34CC5CC(CC(C5)C3)C4)cc2)CC1 (stereo not drawn)	-3.3
O=C(O)Cc1ccc(NC(=O)C2CCCCC2C(=O)O)cc1 (stereo not drawn)	-5.7
COc1ccc(/C=C2/SC(=O)N(CNc3ccc(Br)cc3C)C2=O)c(OC)c1	31.7
CCOc1ccccc1/C=C/C(=O)c1cccc(Br)c1	-8.9
Oc1[nH]c2ccccc2c1N=NC(=S)N1CCCC1	-14.4
COc1cc2ccccc2cc1C(=O)Nc1ccccc1O	-8.7
CC1=NN(C(=O)CCc2ccccc2)C(O)(c2cccnc2)C1 (stereo not drawn)	-23.9
COc1ccc(Cl)cc1C(=O)NCCCN1CCOCC1	5.6
Cc1cc([N+](=O)[O-])ccc1NCc1cccc([N+](=O)[O-])c1	3.1
CCCCOC(=O)c1ccc(NS(=O)(=O)c2ccc3ccccc3c2)cc1	12
O=C(O)c1ccc2c(c1)C(=O)N(c1ccc(NC(=O)c3ccc(Cl)cc3Cl)c(Cl)c1)C2=O	11.8
COc1ccc(OC)c(NC(=O)c2ccccc2Br)c1	-11.3
C=CCn1c(=O)[nH]c2sc3c(c2c1=O)CC(C)(C)OC3	1.7
O=C(N/N=C/c1cccs1)C1CC(=O)N(c2ccccc2)C1 (stereo not drawn)	25
O=C(OCCN1CCCCC1)c1ccc(O)cc1	-8.7

SMILES	displacement [%]
COc1ccc(/C=C/C(=O)NC(=S)n2cnc3ccccc32)cc1OC	3
COc1ccc(NC(=O)c2ccc(Oc3ccc(C(=O)Nc4ccc(OC)cc4)cc3)cc2)cc1	12.5
COc1cc(Cl)ccc1NC(=O)c1cnn2c(C(F)(F)F)cc(-c3ccco3)nc12	9.9
O=C(NN1C(=O)c2ccccc2C1=O)c1cccc(F)c1	-2.5
COc1cccc2cc(C(=O)NNC(=O)c3ccc(Br)cc3)c(=O)oc12	16.2
NS(=O)(=O)c1ccc(CNC(=O)c2ccccc2Cl)cc1	9.2
CC(=O)Oc1ccc2occ(C(=O)c3ccc(C)cc3)c2c1	-11.5
CCOc1ccc(/C=C/C(=O)c2cccs2)cc1	-7.2
Cc1ccc(CN2CCN(N=Cc3ccccc3OCC(=O)O)CC2)c(C)c1	12.1
COc1c(Cl)cc(C(=O)Nc2cc(C)ccc2C)cc1Cl	14.6
CCOC(=O)c1ccccc1NC(=O)CN(c1ccc(C)c(Cl)c1)S(C)(=O)=O	1.1
Cc1cc(C)nc(NS(=O)(=O)c2ccc(NC(=O)c3cc(Cl)cc(Cl)c3)cc2)n1	12
C=CCOn1c(=O)c(C)[n+]([O-])c2ccccc21	12.9
COc1ccccc1NCN1C(=O)C2CCCCC2C1=O (stereo not drawn)	24.6
O=C1CC(N2CCN(c3ccccc3Cl)CC2)C(=O)N1c1cccc(Br)c1 (stereo not drawn)	5.9
CCOc1cc(OCC)cc(C(=O)Nc2cccc(-c3nc4cc(C)ccc4o3)c2C)c1	-4.6
Cc1cccc(C)c1-n1c(C)cc(/C=N/NC(=O)CN2CCOCC2)c1C	-10
CCc1ccc(NC(Nc2ccc(CC)cc2)=C(S(=O)(=O)CC)S(=O)(=O)CC)cc1	9.3
COc1ccccc1N1CCN(CC(O)COC2CC(C)CCC2C(C)C)CC1 (stereo not drawn)	-2.6
CC(=O)Nc1ccc(NC(=O)CSc2nc3ccccc3o2)cc1	12.2
O=C(O)CCC(=O)N1N=C(c2c(-c3ccccc3)c3cc(Cl)ccc3[nH]c2=O)CC1c1ccco1 (stereo not drawn)	18
O=C1SC(Nc2ccccc2)C(=O)N1c1ccc(Br)cc1 (stereo not drawn)	4.1

SMILES	displacement [%]
COc1ccc(C(=O)/C=C/Nc2ccccn2)cc1	9.1
O=C(Nc1ccccc1)Nc1nc(-c2ccc(Cl)cc2Cl)cs1	-8.4
O=C(N/N=C/c1ccc(O)cc1O)c1[nH]c2ccc([N+](=O)[O-])cc2c1-c1ccccc1	22.7
Cc1ccc(/C=N/n2cnnc2)cc1[N+](=O)[O-]	10.6
COc1ccc(C(=O)Nc2nc3c(C)cc(C)cc3s2)cc1Br	5.3
CCOC(=O)c1c(NC(=O)c2ccc(Cl)cc2Cl)sc(C(N)=O)c1C	88.7
Cc1ccc(N2NC(=O)/C(=C/c3ccccc3O)C2=O)cc1C	24.6
Cn1c(NC(=O)c2ccc3c(c2)OCO3)cc(=O)n(C)c1=O	10
CCOC(=O)CCc1cc(C(=O)OCC)c(CCC(=O)OCC)cc1C(=O)OCC	-8.1
COc1ccccc1OCC(=O)NC1CCS(=O)(=O)C1 (stereo not drawn)	6.1
Cc1ccc(-c2csc(NC(=O)c3cccc(Br)c3)n2)cc1	4.8
O=C1c2ccccc2C(=O)N1Cc1nc2ccc(I)cc2c(=O)o1	1.6
Cc1cccc(N2C(=O)/C(=C/c3ccccc3Cl)SC2=S)c1C	11.8
Cc1ccc(N=Cc2c(O)n(-c3ccc(F)cc3)c(=O)[nH]c2=O)cc1	49.9
Cc1ccc(N2CC(C(=O)NCc3ccccc3)CC2=O)cc1 (stereo not drawn)	-2.6
Cc1ccc(-c2nn(-c3ccccc3)cc2C=C2C(=O)CC(C)(C)CC2=O)cc1	8.3
Cc1ccc2nc(Nc3nc4ccccc4c(=O)[nH]3)nc(C)c2c1	3.4
Cc1cccc(NC2=C(Cl)C(=O)N(c3ccc(Cl)cc3)C2=O)c1C	7.8
CC(N=Cc1cccc([N+](=O)[O-])c1)C1COc2ccccc2O1 (stereo not drawn)	8.6
O=C(CSc1ncn(-c2ccccc2)n1)c1ccc(Br)cc1	11.5
Cc1ccc(CC/C=N/N=C2\NC(=O)CS2)o1	-17
COc1ccc(NC(=O)c2ccc3c(c2)C(=O)N(c2cccc(C)c2)C3=O)cc1	17.3

SMILES	displacement [%]
C=CCn1c(SCC(=O)OCC)nc2sc3c(c2c1=O)CCC3	-6.2
NC(CC(=O)O)c1cccc(Br)c1 (stereo not drawn)	8
CCOc1ccc(NC(=O)CN(c2cc(OC)ccc2OC)S(C)(=O)=O)cc1	1.4
COc1ccc(C(=O)/C=C/Nc2cccc(C)c2)cc1	-5.1
COc1ccc(CC(=O)Nc2ccc(C)c(NC(=O)c3ccccc3)c2)cc1OC	9.1
O=C1NN(c2cccc(Cl)c2)C(=O)/C1=C\c1ccc(-c2cccc(C(=O)O)c2)o1	29.6
O=C(CC1Sc2ccccc2NC1=O)Nc1cccc(C(=O)O)c1 (stereo not drawn)	-11.6
COc1ccc(CCNC(=O)CN(c2ccc(Oc3ccccc3)cc2)S(C)(=O)=O)cc1OC	7.8
CCSc1nnc(NC(=O)c2cc(-c3ccc(OC)cc3)nc3ccccc23)s1	0.6
O=[N+]([O-])c1ccc(N2CCN(S(=O)(=O)c3ccccc3)CC2)cc1NC1CC1	5.2
COc1cccc(OC)c1C(=O)N(C)CC(OC)OC	3.4
O=C(COc1ccc(Cl)cc1)Nc1cccc(-c2nc3ccccc3s2)c1	12.1
CCCOc1ccc(/C=N/Nc2nc(-c3ccccc3)cc(-c3ccccc3O)n2)c(O)c1	-2.2
Cc1cccc(OCCOCCN2CCC(C)CC2)c1C	5.6
O=C(Nc1ccc(-c2nc3ccccc3o2)c(O)c1)c1ccccc1I	-4
O=S(=O)(Nc1ccc(O)c(-c2c(O)ccc3ccccc23)c1)c1cc(Cl)ccc1Cl	12.7
COc1ccc(N(CC(=O)NC(C)c2ccccc2)S(C)(=O)=O)cc1 (stereo not drawn)	11.3
O=C(CSc1nc2ccccc2s1)c1ccc(Cl)cc1Cl	-1
O=C1NN(c2ccccc2)C(=O)/C1=C/c1ccc(-c2ccccc2[N+](=O)[O-])o1	-15.8
O=C(Nc1c(F)cc(F)cc1Br)c1cc2n(n1)C(C(F)(F)F)CC(c1cccs1)N2 (stereo not drawn)	4.3
CCCCCSc1nnc2c(n1)[nH]c1ccccc12	5
Cn1c(=O)c2c(nc(SCc3ccc([N+](=O)[O-])cc3)n2C)n(C)c1=O	19

SMILES	displacement [%]
C=CCNC(=O)c1ccc(-c2ccc([N+](=O)[O-])cc2C)o1	9.1
O=C(Nc1ccc(OC(F)(F)F)cc1)c1ccc2ccccc2c1	0.4
CCN1C(=O)/C(=C\c2ccc(O)c(OC)c2)C(C(=O)OC)=C1C	10
CC1(C)CC(=O)C2=C(C1)N=C1c3ccccc3C(=O)C1C2c1cccs1 (stereo not drawn)	-0.6
Cc1ccc(N2C(=O)/C(=C/c3cc(Br)ccc3O)C(=O)NC2=S)cc1	7.5
CCOC(=O)c1cnc(-c2ccccc2)nc1NC	-9.7
CCOCCOC(=O)c1cccc(NC(=O)Cc2ccccc2)c1	-2.4
S=c1[nH]nc(-c2ccccc2Br)n1C1CCCCC1	-0.7
Nc1nonc1-n1nnc(C(=O)N/N=C/c2cccc(O)c2)c1-c1ccccc1	24.6
N/C(=N\OC(=O)c1ccc(Cl)cc1Cl)c1ccc(Br)cc1	1.6
Cc1ccccc1NC(=S)NC(=O)/C=C/c1ccccc1	12.7
CN(C)CCCN1C(=O)CSC1c1cccc([N+](=O)[O-])c1 (stereo not drawn)	-7.8
CC(=O)c1sc(Nc2ccc(Br)cc2)nc1C	-1
O=C1OC(c2ccc(Cl)cc2)=C/C1=C\c1ccccc1	-9.7
COc1ccc(/C=C2/SC(=S)N(CCc3ccccc3)C2=O)cc1OC	105
C=CCN1C(=O)/C(=C/c2ccccc2OCc2ccc([N+](=O)[O-])cc2)SC1=S	12.1
COc1cc(C2Nc3ccccc3NC3=C2C(=O)CC(c2ccc4c(c2)OCO4)C3)ccc1OC(C)=O (stereo not drawn)	7.4
CCOc1cc(-c2ccc(OC)c(OC)c2)cc(=O)c2c(C)oc(C)c12	4.7
CCOC(=O)c1c(N2C(=O)CC(Sc3ccccc3C(=O)O)C2=O)sc2c1CCCC2 (stereo not drawn)	-2.5
N=C1S/C(=C\c2ccc(-c3ccccc3C(=O)O)o2)C(=O)N1c1ccc2c(c1)OCO2	-2.2
